Where a name gives a salt, the structure may show the parent alone. Most values come without repeats; read them as rough.
How the values were obtained:
CHO-K1 [1] = experiment: micronucleus frequency (% of nucleated events); higher = more micronuclei (genotoxic)
CHO-K1 [2] = experiment: hypodiploid nuclei frequency (% of nucleated events); higher = more hypodiploid events (aneugenic)
Method: (§1)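 Flow-cytometric in vitro micronucleus assay (Litron MicroFlow) in CHO-K1 cells in 96-well plates, 19 concentrations (4.5-200 µM, n=1 per concentration). Without S9, cells were exposed for 24 h and sampled at 48 h. With Aroclor 1254-induced rat liver S9, cells were exposed for 3-4 h and sampled at 27-28 h. Read-outs are %MN and %hypodiploid nuclei relative to nucleated events, and relative survival as the nuclei-to-bead ratio versus the 1% DMSO vehicle control (x100).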

CHO-K1 [3] = experiment: relative survival (nuclei to bead ratio vs DMSO control) (% of vehicle control); higher = more surviving cells
Method: as §1

[4] = concentration: 4.5 (µM), S9 metabolic activation: with S9, exposure time: 3-4 hours
[5] = concentration: 4.5 (µM), S9 metabolic activation: without S9, exposure time: 24 hours
[6] = concentration: 5.63 (µM), S9 metabolic activation: with S9, exposure time: 3-4 hours
[7] = concentration: 5.63 (µM), S9 metabolic activation: without S9, exposure time: 24 hours
[8] = concentration: 7.04 (µM), S9 metabolic activation: with S9, exposure time: 3-4 hours
[9] = concentration: 7.04 (µM), S9 metabolic activation: without S9, exposure time: 24 hours
[10] = concentration: 8.8 (µM), S9 metabolic activation: with S9, exposure time: 3-4 hours
[11] = concentration: 8.8 (µM), S9 metabolic activation: without S9, exposure time: 24 hours
[12] = concentration: 11 (µM), S9 metabolic activation: with S9, exposure time: 3-4 hours
[13] = concentration: 11 (µM), S9 metabolic activation: without S9, exposure time: 24 hours
[14] = concentration: 13.7 (µM), S9 metabolic activation: with S9, exposure time: 3-4 hours
[15] = concentration: 13.7 (µM), S9 metabolic activation: without S9, exposure time: 24 hours
[16] = concentration: 17.2 (µM), S9 metabolic activation: with S9, exposure time: 3-4 hours
[17] = concentration: 17.2 (µM), S9 metabolic activation: without S9, exposure time: 24 hours
[18] = concentration: 21.5 (µM), S9 metabolic activation: with S9, exposure time: 3-4 hours
[19] = concentration: 21.5 (µM), S9 metabolic activation: without S9, exposure time: 24 hours
[20] = concentration: 26.8 (µM), S9 metabolic activation: with S9, exposure time: 3-4 hours
[21] = concentration: 26.8 (µM), S9 metabolic activation: without S9, exposure time: 24 hours
[22] = concentration: 33.6 (µM), S9 metabolic activation: with S9, exposure time: 3-4 hours
[23] = concentration: 33.6 (µM), S9 metabolic activation: without S9, exposure time: 24 hours
[24] = concentration: 41.9 (µM), S9 metabolic activation: with S9, exposure time: 3-4 hours
[25] = concentration: 41.9 (µM), S9 metabolic activation: without S9, exposure time: 24 hours
[26] = concentration: 52.4 (µM), S9 metabolic activation: with S9, exposure time: 3-4 hours
[27] = concentration: 52.4 (µM), S9 metabolic activation: without S9, exposure time: 24 hours
[28] = concentration: 65.5 (µM), S9 metabolic activation: with S9, exposure time: 3-4 hours
[29] = concentration: 65.5 (µM), S9 metabolic activation: without S9, exposure time: 24 hours
[30] = concentration: 81.9 (µM), S9 metabolic activation: with S9, exposure time: 3-4 hours
[31] = concentration: 81.9 (µM), S9 metabolic activation: without S9, exposure time: 24 hours
[32] = concentration: 102 (µM), S9 metabolic activation: with S9, exposure time: 3-4 hours
[33] = concentration: 102 (µM), S9 metabolic activation: without S9, exposure time: 24 hours
[34] = concentration: 128 (µM), S9 metabolic activation: with S9, exposure time: 3-4 hours
[35] = concentration: 128 (µM), S9 metabolic activation: without S9, exposure time: 24 hours
[36] = concentration: 160 (µM), S9 metabolic activation: with S9, exposure time: 3-4 hours
[37] = concentration: 160 (µM), S9 metabolic activation: without S9, exposure time: 24 hours
[38] = concentration: 200 (µM), S9 metabolic activation: with S9, exposure time: 3-4 hours
[39] = concentration: 200 (µM), S9 metabolic activation: without S9, exposure time: 24 hours
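Wherever hypodiploid nuclei frequency (% of nucleated events) is given: hypodiploid nuclei gated on a flow cytometer with 488 nm excitation after SYTOX Green staining, cultures at 37 °C, positive controls vinblastine without S9 and cyclophosphamide with S9.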
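Wherever micronucleus frequency (% of nucleated events) is given: cells lysed with nuclei stained by SYTOX Green, then micronucleus-gated events counted against nucleated events by flow cytometry with 488 nm excitation.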
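Wherever relative survival (nuclei to bead ratio vs DMSO control) is given: Lysed-cell nuclei stained with SYTOX Green and counted against counting beads by flow cytometry at 488 nm excitation, with vinblastine (no S9) and cyclophosphamide (plus S9) as positive controls.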

SMILES: CN(C)[C@@H]1C(O)=C(C(N)=O)C(=O)[C@@]2(O)C(O)=C3C(=O)c4c(O)cccc4[C@@](C)(O)[C@H]3[C@H](O)[C@@H]12 [Oxytetracycline hydrochloride]
- micronucleus frequency (CHO-K1 [1]; [4]): 1.42%
- micronucleus frequency (CHO-K1 [1]; [5]): 1.32%
- micronucleus frequency (CHO-K1 [1]; [6]): 1.02%
- micronucleus frequency (CHO-K1 [1]; [7]): 2.48%
- micronucleus frequency (CHO-K1 [1]; [8]): 1.28%
- micronucleus frequency (CHO-K1 [1]; [9]): 2.2%
- micronucleus frequency (CHO-K1 [1]; [10]): 1.28%
- micronucleus frequency (CHO-K1 [1]; [11]): 1.42%
- micronucleus frequency (CHO-K1 [1]; [12]): 1.62%
- micronucleus frequency (CHO-K1 [1]; [13]): 1.96%
- micronucleus frequency (CHO-K1 [1]; [14]): 1.64%
- micronucleus frequency (CHO-K1 [1]; [15]): 1.56%
- micronucleus frequency (CHO-K1 [1]; [16]): 1.4%
- micronucleus frequency (CHO-K1 [1]; [17]): 1.76%
- micronucleus frequency (CHO-K1 [1]; [18]): 1.32%
- micronucleus frequency (CHO-K1 [1]; [19]): 1.9%
- micronucleus frequency (CHO-K1 [1]; [20]): 1.52%
- micronucleus frequency (CHO-K1 [1]; [21]): 1.46%
- micronucleus frequency (CHO-K1 [1]; [22]): 1.04%
- micronucleus frequency (CHO-K1 [1]; [23]): 1.28%
- micronucleus frequency (CHO-K1 [1]; [24]): 1.58%
- micronucleus frequency (CHO-K1 [1]; [25]): 1.98%
- micronucleus frequency (CHO-K1 [1]; [26]): 1.92%
- micronucleus frequency (CHO-K1 [1]; [27]): 1.64%
- micronucleus frequency (CHO-K1 [1]; [28]): 3.34%
- micronucleus frequency (CHO-K1 [1]; [29]): 1.3%
- micronucleus frequency (CHO-K1 [1]; [30]): 1.14%
- micronucleus frequency (CHO-K1 [1]; [31]): 1.54%
- micronucleus frequency (CHO-K1 [1]; [32]): 2.22%
- micronucleus frequency (CHO-K1 [1]; [33]): 1.94%
- micronucleus frequency (CHO-K1 [1]; [34]): 1.38%
- micronucleus frequency (CHO-K1 [1]; [35]): 1.4%
- micronucleus frequency (CHO-K1 [1]; [36]): 1.72%
- micronucleus frequency (CHO-K1 [1]; [37]): 2.06%
- micronucleus frequency (CHO-K1 [1]; [38]): 2.16%
- micronucleus frequency (CHO-K1 [1]; [39]): 2.32%
- hypodiploid nuclei frequency (CHO-K1 [2]; [4]): 0.26%
- hypodiploid nuclei frequency (CHO-K1 [2]; [5]): 0.52%
- hypodiploid nuclei frequency (CHO-K1 [2]; [6]): 0.18%
- hypodiploid nuclei frequency (CHO-K1 [2]; [7]): 0.76%
- hypodiploid nuclei frequency (CHO-K1 [2]; [8]): 0.2%
- hypodiploid nuclei frequency (CHO-K1 [2]; [9]): 0.7%
- hypodiploid nuclei frequency (CHO-K1 [2]; [10]): 0.1%
- hypodiploid nuclei frequency (CHO-K1 [2]; [11]): 0.6%
- hypodiploid nuclei frequency (CHO-K1 [2]; [12]): 0.32%
- hypodiploid nuclei frequency (CHO-K1 [2]; [13]): 1.04%
- hypodiploid nuclei frequency (CHO-K1 [2]; [14]): 0.28%
- hypodiploid nuclei frequency (CHO-K1 [2]; [15]): 0.74%
- hypodiploid nuclei frequency (CHO-K1 [2]; [16]): 0.32%
- hypodiploid nuclei frequency (CHO-K1 [2]; [17]): 0.54%
- hypodiploid nuclei frequency (CHO-K1 [2]; [18]): 0.24%
- hypodiploid nuclei frequency (CHO-K1 [2]; [19]): 0.8%
- hypodiploid nuclei frequency (CHO-K1 [2]; [20]): 0.34%
- hypodiploid nuclei frequency (CHO-K1 [2]; [21]): 0.36%
- hypodiploid nuclei frequency (CHO-K1 [2]; [22]): 0.22%
- hypodiploid nuclei frequency (CHO-K1 [2]; [23]): 0.64%
- hypodiploid nuclei frequency (CHO-K1 [2]; [24]): 0.3%
- hypodiploid nuclei frequency (CHO-K1 [2]; [25]): 0.34%
- hypodiploid nuclei frequency (CHO-K1 [2]; [26]): 0.3%
- hypodiploid nuclei frequency (CHO-K1 [2]; [27]): 0.74%
- hypodiploid nuclei frequency (CHO-K1 [2]; [28]): 0.4%
- hypodiploid nuclei frequency (CHO-K1 [2]; [29]): 0.72%
- hypodiploid nuclei frequency (CHO-K1 [2]; [30]): 0.2%
- hypodiploid nuclei frequency (CHO-K1 [2]; [31]): 1%
- hypodiploid nuclei frequency (CHO-K1 [2]; [32]): 0.34%
- hypodiploid nuclei frequency (CHO-K1 [2]; [33]): 1.12%
- hypodiploid nuclei frequency (CHO-K1 [2]; [34]): 0.36%
- hypodiploid nuclei frequency (CHO-K1 [2]; [35]): 0.7%
- hypodiploid nuclei frequency (CHO-K1 [2]; [36]): 0.48%
- hypodiploid nuclei frequency (CHO-K1 [2]; [37]): 1.4%
- hypodiploid nuclei frequency (CHO-K1 [2]; [38]): 0.62%
- hypodiploid nuclei frequency (CHO-K1 [2]; [39]): 1.48%
- relative survival (CHO-K1 [3]; [4]): 122
- relative survival (CHO-K1 [3]; [5]): 78
- relative survival (CHO-K1 [3]; [6]): 86.6
- relative survival (CHO-K1 [3]; [7]): 88.9
- relative survival (CHO-K1 [3]; [8]): 84.2
- relative survival (CHO-K1 [3]; [9]): 98.3
- relative survival (CHO-K1 [3]; [10]): 96.1
- relative survival (CHO-K1 [3]; [11]): 87.5
- relative survival (CHO-K1 [3]; [12]): 99.9
- relative survival (CHO-K1 [3]; [13]): 60.9
- relative survival (CHO-K1 [3]; [14]): 105
- relative survival (CHO-K1 [3]; [15]): 89.2
- relative survival (CHO-K1 [3]; [16]): 124
- relative survival (CHO-K1 [3]; [17]): 82.5
- relative survival (CHO-K1 [3]; [18]): 104
- relative survival (CHO-K1 [3]; [19]): 68.3
- relative survival (CHO-K1 [3]; [20]): 82.2
- relative survival (CHO-K1 [3]; [21]): 81.6
- relative survival (CHO-K1 [3]; [22]): 108
- relative survival (CHO-K1 [3]; [23]): 91
- relative survival (CHO-K1 [3]; [24]): 107
- relative survival (CHO-K1 [3]; [25]): 75.7
- relative survival (CHO-K1 [3]; [26]): 87.1
- relative survival (CHO-K1 [3]; [27]): 83.4
- relative survival (CHO-K1 [3]; [28]): 91.3
- relative survival (CHO-K1 [3]; [29]): 81
- relative survival (CHO-K1 [3]; [30]): 99.4
- relative survival (CHO-K1 [3]; [31]): 68.5
- relative survival (CHO-K1 [3]; [32]): 91.9
- relative survival (CHO-K1 [3]; [33]): 65.9
- relative survival (CHO-K1 [3]; [34]): 101
- relative survival (CHO-K1 [3]; [35]): 65.2
- relative survival (CHO-K1 [3]; [36]): 97.5
- relative survival (CHO-K1 [3]; [37]): 74.7
- relative survival (CHO-K1 [3]; [38]): 98.2
- relative survival (CHO-K1 [3]; [39]): 60.1

Source: the supplement of paper PMC9151546
